Experimental data published in PubChem BioAssay AID1345083 (National Center for Advancing Translational Sciences (NCATS), 2018).
About 6,200 (6.6%) of roughly 94,000 compounds were called active. This list was built around the results that the source calls inconclusive (neither active nor inactive); the mix of calls is not that of the screen. Calls come from the whole dose curve; as a rule, active = well fitted inhibition curve with a large enough effect; inconclusive = small, poorly fitted or top-dose-only effect; inactive = flat fitted curve, though single readings scatter. Potencies of inconclusive entries are doubtful fits and often do not repeat.

Assay: Cytotoxic Profiling in HEK 293 Cell Line of Diverse Libraries Using Quantitative High-Throughput Screening; note: nearly all actives have a fitted effect of over 60% in size
Conditions: HEK 293 viability, ATP luminescence (CellTiter-Glo), 48-72 h; series mostly up to 115 µM
How it was run: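 Luminescence from cellular ATP, measured with CellTiter-Glo, indicates HEK 293 viability. Cells plated at 250 cells/well are treated with compound for 48 or 72 hr at 37 degree Celsius before reagent addition.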
Potency is the fitted concentration of half-maximal effect; tags give direction and shape of the fitted curve.

Q: For `Cn1cc(CN2CCCC(COc3ccccc3C(=O)N3CCCC3)C2)c2ccccc21` (stereo unspecified), which Potency is on record?
A: inconclusive: 50.1 µM [inhibitor, partial curve, poor fit]

Q: For `CN(C)Cc1cn2c(=O)n(C)cc(-c3ccc(F)c(Cl)c3)c2n1`, which Potency is on record?
A: inconclusive: 112 µM [inhibitor, single point]

Q: Which Potency does the source give for `CCC(C)NC(=O)c1cc(-c2cccc(F)c2)nc2c1cnn2C` (stereo unspecified) here?
A: active: 89.1 µM

Q: For `CC(=O)Nc1ccc(CN2CCn3c(nn(-c4cccc(Cl)c4)c3=O)C2)cc1`, which Potency is on record?
A: inconclusive: 79.4 µM [inhibitor, single point]

Q: For `CC1(C)C[C@H]2C[C@@H](O)[C@H](N3CCN(c4ccc(C(F)(F)F)cn4)CC3)[C@]2(O)CO1`, which Potency is on record?
A: inconclusive: 11.2 µM [inhibitor, full curve]

Q: With `Cc1cc2cc(C(=O)N3CCN(c4ncccc4C#N)CC3)ccc2o1` as the compound, how does the Potency read?
A: inactive

Q: With `Cn1c([C@H]2CCN(C3CCCCC3)C2)nc2ccccc21` as the compound, how does the Potency read?
A: inconclusive: 126 µM [inhibitor, partial curve, poor fit]

Q: For `COC(=O)N(C)Cc1cccc(N2CCN(Cc3c(Cl)ccc(Cl)c3Cl)CC2)c1`, which Potency is on record?
A: inconclusive: 70.8 µM [inhibitor, partial curve, poor fit]

Q: With `O=C(NC1CC1)c1nc(-c2cccc(F)c2)c2cnccn12` as the compound, how does the Potency read?
A: inconclusive: 89.1 µM [inhibitor, partial curve]

Q: Which Potency does the source give for `Cc1ccc(-c2ccccc2CN2CCN([S+](=O)([O-])CCC(F)(F)F)CC2)cc1Cl` here?
A: inconclusive: 17.8 µM [inhibitor, full curve, poor fit]

Q: For `O=[S+]([O-])(c1ccccc1)N1CC2(COCCN(Cc3ccc(Cl)cc3)C2)C1`, which Potency is on record?
A: inconclusive: 89.1 µM [inhibitor, partial curve]

Q: Which Potency does the source give for `Cc1ccc(CCCN2CCCC(COc3ccccc3C(=O)N3CCCCC3)C2)o1` (stereo unspecified) here?
A: inconclusive: 28.2 µM [inhibitor, partial curve, poor fit]

Q: With `COc1cccc(CN2C[C@@H](Oc3ccccc3)C[C@H]2C(N)=O)c1` as the compound, how does the Potency read?
A: inconclusive: 50.1 µM [inhibitor, partial curve, poor fit]

Q: With `CCOC(=O)C(Cc1cccc(N2CCN([S+](=O)([O-])c3c(Cl)cccc3Cl)CC2)c1)OC` (stereo unspecified) as the compound, how does the Potency read?
A: active: 20 µM

Q: With `O=C(CCC(F)(F)F)N1CCCC(CCc2c(F)cccc2F)C1` (stereo unspecified) as the compound, how does the Potency read?
A: inactive

Q: With `Cc1ccncc1-c1c(C)nn2c1N(Cc1cccc(O)c1)CCC2` as the compound, how does the Potency read?
A: inconclusive: 44.7 µM [inhibitor, full curve]

Q: Which Potency does the source give for `COCC1CN(C2CCC2)CC12CCN(C(=O)Cc1ccccc1F)CC2` (stereo unspecified) here?
A: active: 50.1 µM

Q: With `N#Cc1cccc(-c2ccnc(N[C@H]3CO[C@H]4[C@@H]3OC[C@@H]4NC(=O)C3CCCCC3)n2)c1` as the compound, how does the Potency read?
A: inconclusive: 112 µM [inhibitor, partial curve, poor fit]

Q: With `Cc1nc2c(NC3CCN(C(=O)c4cccn4C)CC3)cccn2n1` as the compound, how does the Potency read?
A: inconclusive: 50.1 µM [inhibitor, partial curve, poor fit]

Q: With `CCOCC(=O)N1CCC2(CC1)CN(Cc1ccccc1)CC2CO` (stereo unspecified) as the compound, how does the Potency read?
A: inconclusive: 89.1 µM [inhibitor, single point]

Q: Which Potency does the source give for `O=C(Cc1ccc(F)cc1)N1CCC2(CC1)CC(N(Cc1ccccc1)C1CC1)CCO2` (stereo unspecified) here?
A: inconclusive: 56.2 µM [inhibitor, partial curve, poor fit]

Q: For `C=CCS(=O)(=O)N1CCCC(CCc2c(F)cccc2F)C1` (stereo unspecified), which Potency is on record?
A: inconclusive: 50.1 µM [inhibitor, partial curve, poor fit]

Q: For `COc1ccc(CN2CCC3(C2)C(=O)N(Cc2ccccc2)c2ccccc23)cc1` (stereo unspecified), which Potency is on record?
A: active: 39.8 µM

Q: Which Potency does the source give for `O=C(C1CCCN([S+](=O)([O-])c2cccc(C(F)(F)F)c2)C1)N1CCC(N2CCOC2=O)CC1` (stereo unspecified) here?
A: inconclusive: 44.7 µM [inhibitor, partial curve, poor fit]

Q: Which Potency does the source give for `CC(C)c1ccc(CN2CCC3OCCN(c4ccccc4)C(=O)C3C2)cc1` (stereo unspecified) here?
A: inconclusive: 100 µM [inhibitor, partial curve, poor fit]

Q: Which Potency does the source give for `COc1ccc(CNC2(Cc3cc(-c4ccc(F)cc4)on3)COC2)cc1` here?
A: inconclusive: 126 µM [inhibitor, partial curve, poor fit]

Q: For `COc1ccc(-c2nc3cc(C)ccc3cc2CN2CCCC(O)C2)cc1OC` (stereo unspecified), which Potency is on record?
A: inconclusive: 39.8 µM [inhibitor, full curve]

Q: With `COc1ccc(CN2C[C@H]3CN(S(=O)(=O)c4ccc(OC)cc4)CCN3C2=O)cc1` as the compound, how does the Potency read?
A: inconclusive: 63.1 µM [inhibitor, partial curve, poor fit]

Q: For `COc1cc(-c2onc(C)c2C(=O)NCCCc2ccccc2)cc(OC)c1OC`, which Potency is on record?
A: inconclusive: 89.1 µM [inhibitor, single point]

Q: Which Potency does the source give for `Cn1ncc2c(C(=O)N3CCN(Cc4ccccc4)CC3)cc(-c3ccccc3)nc21` here?
A: inconclusive: 89.1 µM [inhibitor, single point]

Q: For `Cc1nn(-c2ccc(C(C)(C)C)cc2)c(C)c1[C@@H]1C=C[C@@H](NC(=O)CCC(=O)O)C1`, which Potency is on record?
A: inconclusive: 126 µM [inhibitor, single point]

Q: With `CCOc1cccc(CN2CCC(Oc3ccc(-c4noc(C5CC5)n4)cc3)C2)c1` (stereo unspecified) as the compound, how does the Potency read?
A: inconclusive: 39.8 µM [inhibitor, full curve, poor fit]

Q: For `CC(C)NC(=O)NC1CC2(CCN(Cc3ccc(O)cc3)CC2)c2ccccc21` (stereo unspecified), which Potency is on record?
A: inconclusive: 70.8 µM [inhibitor, single point]

Q: With `Cc1ccc(Nc2ccnc(N3CCCC(C(=O)NCc4ccc5c(c4)OCO5)C3)n2)cc1` (stereo unspecified) as the compound, how does the Potency read?
A: active: 7.94 µM

Q: Which Potency does the source give for `O=C(COc1ccccc1)N1CCC2(CC1)OCCN(CCc1ccccc1)C2=O` here?
A: inconclusive: 89.1 µM [inhibitor, partial curve, poor fit]

Q: Which Potency does the source give for `Cc1noc([C@@H]2CN(Cc3ccc(OC(C)C)cc3)C[C@H]2CO)n1` here?
A: inconclusive: 89.1 µM [inhibitor, single point]

Q: With `Fc1ccc(OC2CN(Cc3cncs3)C2)cc1F` as the compound, how does the Potency read?
A: inconclusive: 126 µM [inhibitor, single point]

Q: Which Potency does the source give for `Cc1ncccc1C(=O)N1CCC2(CC1)CC(N(Cc1ccccc1)C1CC1)CCO2` (stereo unspecified) here?
A: inconclusive: 50.1 µM [inhibitor, partial curve, poor fit]

Q: For `CCOc1ccccc1NC(=O)c1cc2c(N3CCSCC3)nc(C)cn2n1`, which Potency is on record?
A: active: 35.5 µM

Q: With `O=C(NCc1cccc(F)c1)c1nc2c(o1)CCN(Cc1cccc(F)c1F)CC2` as the compound, how does the Potency read?
A: active: 50.1 µM

Q: With `CCc1ccc(S(=O)(=O)N2CCN(C3CCN(CCc4ccccc4)C3=O)CC2)cc1` (stereo unspecified) as the compound, how does the Potency read?
A: inconclusive: 50.1 µM [inhibitor, partial curve, poor fit]

Q: For `CCn1nc(-c2ccc(OC)nc2)nc1N(C)C`, which Potency is on record?
A: inconclusive: 39.8 µM [inhibitor, full curve, poor fit]

Q: Which Potency does the source give for `CCOc1ccccc1NC(=O)c1cc2n(n1)CC(c1ccc(Cl)cc1)OC2` (stereo unspecified) here?
A: inactive

Q: Which Potency does the source give for `COCCc1noc(-c2ccc(N(C)CCc3cnn(C)c3)nc2)n1` here?
A: inactive

Q: With `Cc1cc(C)c2[nH]c(C(=O)N3CCN(Cc4ccccc4)C(=O)C3C)c(C)c2c1` (stereo unspecified) as the compound, how does the Potency read?
A: active: 35.5 µM

Q: With `COc1ccc(-c2noc(CC3CCN(C(=O)Cc4ccc(C)cc4)CC3)n2)cc1` as the compound, how does the Potency read?
A: inconclusive: 50.1 µM [inhibitor, partial curve, poor fit]

Q: For `Cc1oc(C(O)c2ccccc2)nc1C(=O)Nc1ccc(C(=O)Nc2ccccc2)cc1` (stereo unspecified), which Potency is on record?
A: active: 31.6 µM

Q: For `O=C(C1CCN([S+](=O)([O-])c2cccc(C(F)(F)F)c2)CC1)N1CCC(N2Cc3ccccc3C2=O)CC1`, which Potency is on record?
A: inconclusive: 39.8 µM [inhibitor, partial curve, poor fit]

Q: With `COc1cc(-c2nccc3c(=O)cc(N4CCOCC4)oc23)ccn1` as the compound, how does the Potency read?
A: inactive

Q: With `COc1ccnc(-c2nnc3ccc(N4CCN(C(=O)c5ccco5)CC4)nn23)c1` as the compound, how does the Potency read?
A: inactive

Q: Which Potency does the source give for `O=C1NC2(CCN(Cc3ccccc3C(F)(F)F)C2)Oc2ccccc21` (stereo unspecified) here?
A: inactive

Q: For `CCc1ccc(S(=O)(=O)N2CCC(n3cnnc3-c3ccccc3)CC2)cc1`, which Potency is on record?
A: inconclusive: 31.6 µM [inhibitor, partial curve, poor fit]

Q: With `CCOc1ccc(CC(=O)N2CCCN(C(=O)C3CC3)c3ccccc32)cc1` as the compound, how does the Potency read?
A: inconclusive: 39.8 µM [inhibitor, full curve, poor fit]

Q: For `CN1CCC(NC(=O)c2n[nH]c3c2CN(C(=O)c2ccc(F)cc2F)CC3)CC1`, which Potency is on record?
A: inconclusive: 56.2 µM [inhibitor, partial curve, poor fit]

Q: For `NC1CCCCN(C(=O)c2ccc3n[nH]nc3c2)C1` (stereo unspecified), which Potency is on record?
A: inactive

Q: For `COCC1CN(C)CC12CCN(C(=O)CC1=CCCCC1)CC2` (stereo unspecified), which Potency is on record?
A: inconclusive: 89.1 µM [inhibitor, single point]

Q: Which Potency does the source give for `COc1ccc(-c2ncc(CN3CCOC(c4cccnc4)C3)cn2)cc1` (stereo unspecified) here?
A: inconclusive: 39.8 µM [inhibitor, partial curve, poor fit]

Q: Which Potency does the source give for `O=S(=O)(NC[C@H]1COCc2nc3cc(F)ccc3n21)c1ccccc1` here?
A: inconclusive: 89.1 µM [inhibitor, partial curve]

Q: Which Potency does the source give for `COc1cccc(N2CCN(C(=O)CCC[C@@H]3[C@H]4CCCN5CCC[C@@H](CN3C)[C@@H]45)CC2)c1` here?
A: inconclusive: 50.1 µM [inhibitor, partial curve, poor fit]

Q: For `COC(=O)c1cc2n(n1)CCCN(C(=O)c1cc(-c3ccccc3O)n[nH]1)C2`, which Potency is on record?
A: inconclusive: 89.1 µM [inhibitor, single point]

Q: With `C[S+](=O)([O-])N1CC2(CCCN(C3CCCCC3)C2)Cc2ccccc21` (stereo unspecified) as the compound, how does the Potency read?
A: inconclusive: 79.4 µM [inhibitor, single point]
